According to the supplement of paper PMC12355420:
Values joined by “and” are separate entries in the source; they are usually repeats but may differ in a detail not shown here. Identical values can stand only once. Counter-ions that a name gives are not always drawn. This is one part of the list. Cut-off read from the data, not from the text of the source: active = 0.5 or less and inactive = the rest. Many values rest on one well or one pass, so single values are uncertain.

Assays:
Conditions in all cases: 50 µM; 24 h
[1] = system: HeLa VPS33A reporter cells; experiment: relative cell viability (CellMask signal) vs DMSO (fraction of DMSO); higher = less cytotoxic;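 note: primary screen of an FDA-approved drug library in HeLa reporter cells in 96-well format, CellMask signal normalized to DMSO-treated wells set as 1, under 0.5 deemed highly cytotoxic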
[2] = system: HeLa VPS33A R498W KI + HA-SDC1-FLAG; experiment: relative GAG core protein HA-SDC1 amount per cell number vs DMSO (fraction of DMSO); higher = more SDC1 (GAG core protein);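 note: HA-SDC1 level read out by In-Cell Western staining with an anti-HA antibody against the N-terminal tag, screening FDA-approved library drugs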
[3] = system: HeLa VPS33A KO + NLuc-VPS33A R498W; experiment: relative mutant VPS33A R498W amount (NanoLuc luminescence) vs DMSO (fraction of DMSO); HeLa model of a glycosaminoglycan (GAG) storage disease; KI is knock-in and KO knock-out; SDC1 is syndecan 1; higher = higher mutant VPS33A level;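 note: screen of an FDA-approved drug library, NanoLuc luminescence read after lysing the treated cells, taken as a measure of mutant VPS33A protein stability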

Structure (SMILES)	relative cell viability [1]	relative GAG core protein HA-SDC1 amount per cell number [2]	relative mutant VPS33A R498W amount [3]
CC(C)N(CCNC(=O)CN1CCCC1=O)C(C)C [Pramiracetam]	1.12	inactive: 0.864	1.41
c1ccc2c(c1)sc1ccccc12 [Dibenzothiophene]	0.954	inactive: 0.639	1.1
NCCc1c[nH]c2ccc(O)cc12 [Serotonin HCl]	0.984	inactive: 0.669	1.02
CN1[C@@H]2CC[C@H]1C[C@@H](OC(=O)C(CO)c1ccccc1)C2 (stereo partly specified) [Atropine]	1.33 and 1.08	inactive: 1.41 and inactive: 0.834	0.861 and 1.39
CC[C@@H](C(N)=O)N1CCCC1=O [Levetiracetam]	1.47	inactive: 0.834	1.08
CC(C)OC(=O)[C@H](C)N[P@](=O)(CO[C@H](C)Cn1cnc2c(N)ncnc21)Oc1ccccc1	1.09	inactive: 0.721	2.33
CC[C@@]1(O)C(=O)OCc2c1cc1n(c2=O)Cc2cc3ccccc3nc2-1 [Camptothecin]	1.16	inactive: 0.781	0.675
COc1ccc2[nH]cc(CCN)c2c1 [5-Methoxytryptamine]	1.05	inactive: 0.843	1.04
COc1cc([C@@H]2c3cc4c(cc3[C@H](O)[C@H]3COC(=O)[C@H]23)OCO4)cc(OC)c1OC [Podophyllotoxin]	1.02	inactive: 0.643	0.495
CN1C(=O)CCS(=O)(=O)C1c1ccc(Cl)cc1 (stereo unspecified) [Chlormezanone]	1.14	inactive: 0.784	1.13
CCC[C@@H]1CC(=O)N([C@@H](CC)C(N)=O)C1 [Brivaracetam]	1.01	inactive: 0.815	1.21
CCC1=C[C@H]2CN3CCc4c([nH]c5ccccc45)[C@](C(=O)OC)(C2)[C@H]13 [Catharanthine]	0.891	active: 0.479	0.862
CC(C)c1cccc(C(C)C)c1O [Propofol]	1.02	inactive: 0.911	0.672
O=c1cccc2n1C[C@@H]1CNC[C@H]2C1 [Cytisine]	1.13	inactive: 0.994	1.35
C[C@H]1O[C@H](O[C@H]2[C@H](O)[C@@H](O)[C@@H](O)[C@H](O)[C@@H]2O)[C@@H](N)C[C@@H]1NC(=N)C(=O)O [Kasugamycin (hydrochloride)]	1.07	inactive: 1.03	1.07
NCC1(CC(=O)O)CCCCC1 [Gabapentin HCl]	1.28	inactive: 1.65	1.15
NCC(CC(=O)O)c1ccc(Cl)cc1 (racemic) [(±)-Baclofen]	1.01	inactive: 0.902	1.1
COc1cc2c3c(c1OC)-c1ccccc1C[C@H]3N(C)CC2 [Nuciferine]	0.00557		
CN(C)[C@@H]1C(=O)C(C(N)=O)=C(O)[C@@]2(O)C(=O)C3=C(O)c4c(O)cccc4[C@@](C)(O)[C@H]3C[C@@H]12 [Tetracycline Hydrochloride]	1.13	inactive: 0.693	0.371
C[C@]12CC[C@H]3[C@@H](CC[C@@]45O[C@@H]4C(O)=C(C#N)C[C@]35C)[C@@H]1CC[C@@H]2O [Trilostane]	0.126		
C/C(=C\c1csc(C)n1)[C@@H]1C[C@@H]2O[C@]2(C)CCC[C@H](C)[C@H](O)[C@@H](C)C(=O)C(C)(C)[C@@H](O)CC(=O)O1 [Epothilone B (EPO906, Patupilone)]	0.0904		
CC(C)[C@]12O[C@H]1[C@@H]1O[C@]13[C@]1(O[C@H]1C[C@H]1C4=C(CC[C@@]13C)C(=O)OC4)[C@@H]2O [Triptolide]	0.0271		
C[C@@H]1O[C@@H](O[C@H]2C[C@@H](O)[C@]3(CO)[C@H]4[C@H](O)C[C@]5(C)[C@@H](C6=CC(=O)OC6)CC[C@]5(O)[C@@H]4CC[C@]3(O)C2)[C@H](O)[C@H](O)[C@H]1O [Ouabain Octahydrate]	0.00754		
O=Cc1ccco1 [Furfural]	0.961	inactive: 0.893	1.36
[O-][n+]1ccccc1[S-].[O-][n+]1ccccc1[S-].[Zn+2] [Zinc Pyrithione]	0.00887		
Oc1cc(Cl)ccc1Oc1ccc(Cl)cc1Cl [Triclosan]	0.00733		
COc1cc2c(cc1OC)[C@@]13CCN4CC5=CCO[C@H]6CC(=O)N2[C@H]1[C@H]6[C@H]5C[C@H]43 [Brucine]	0.998	inactive: 0.794	1.41
CN(CC(=O)O)C(=N)NP(=O)(O)O [Phosphocreatine disodium salt]	1.04	inactive: 1.14	0.999

Structure (SMILES)	relative cell viability [1]	relative GAG core protein HA-SDC1 amount per cell number [2]	relative mutant VPS33A R498W amount [3]
CC(=O)O[C@@]12CO[C@@H]1C[C@H](O)[C@@]1(C)C(=O)[C@H](O)C3=C(C)[C@@H](O)C[C@@](O)([C@@H](OC(=O)c4ccccc4)[C@H]21)C3(C)C [10-DAB (10-Deacetylbaccatin)]	0.0622		
COc1cccc2c1cc([N+](=O)[O-])c1c(C(=O)O)cc3c(c12)OCO3 [Aristolochic Acid A]	0.0624		
C[N+]1(C)[C@@H]2C[C@@H](OC(=O)[C@H](CO)c3ccccc3)C[C@H]1[C@@H]1O[C@@H]12 [Methscopolamine]	1.13	inactive: 0.632	1.21
COc1ccc2c(c1)[nH]c1c(C)nccc12 [Harmine]	0.243		
NC(=O)CN1CC(c2ccccc2)CC1=O (stereo unspecified) [Phenylpiracetam]	0.0834		
CN(C)[C@@H]1C(=O)C(C(N)=O)=C(O)[C@@]2(O)C(=O)C3=C(O)c4c(O)cccc4[C@@](C)(O)[C@H]3[C@H](O)[C@@H]12 [Oxytetracycline Dihydrate]	0.916	inactive: 0.846	1.06
CNCC(O)c1ccc(O)cc1 (stereo unspecified) [Synephrine]	0.869	inactive: 0.61	1.1
O=C1CC[C@@]2(O)[C@H]3Cc4ccc(O)c5c4[C@@]2(CCN3CC2CC2)[C@H]1O5 [Naltrexone HCl]	0.966	inactive: 0.995	1.25
CCCCCCCCCCCCCCCC[n+]1ccccc1 [Cetylpyridinium Chloride]	0.00363		
O=C(O)CCCc1ccc(N(CCCl)CCCl)cc1 [Chlorambucil]	0.939	inactive: 0.745	0.756
COc1cc2c(c(OC)c1OC)-c1ccc(OC)c(=O)cc1[C@@H](NC(C)=O)CC2 [Colchicine]	0.265		
Cc1cc(C(C#N)c2ccc(Cl)cc2)c(Cl)cc1NC(=O)c1cc(I)cc(I)c1O (stereo unspecified) [Closantel Sodium]	0.69	active: 0.381	0.943
N[C@@H](Cc1ccc(N(CCCl)CCCl)cc1)C(=O)O [Melphalan]	0.00523		
CC(=O)[C@H]1CC[C@H]2[C@@H]3CC[C@H]4C[C@H](O)CC[C@]4(C)[C@H]3CC[C@]12C [Allopregnanolone]	1.16	inactive: 0.736	1.14
CC[C@@H](C(=O)[C@@H](C)[C@@H](O)[C@H](C)[C@@H]1O[C@@H]([C@@H](CC)C(=O)O)CC[C@@H]1C)[C@H]1O[C@]2(C=C[C@@H](O)[C@]3(CC[C@@](C)([C@H]4CC[C@](O)(CC)[C@H](C)O4)O3)O2)[C@H](C)C[C@@H]1C [Salinomycin]	0.00453		
O=C1C=CC(=O)C=C1 [1,4-Benzoquinone]	0.00597		
COc1cc([C@@H]2c3cc4c(cc3[C@H](O)[C@H]3COC(=O)[C@@H]23)OCO4)cc(OC)c1OC	0.146		
CC[C@H](C)[C@@H]([C@@H](CC(=O)N1CCC[C@H]1[C@H](OC)[C@@H](C)C(=O)N[C@H](C)[C@@H](O)c1ccccc1)OC)N(C)C(=O)[C@@H](NC(=O)[C@@H](NC)C(C)C)C(C)C [Monomethyl auristatin E]	0.474		
Nc1nc(N)nc(N)n1 [Melamine]	1.04	inactive: 0.873	1.54
Cc1cc(C(C#N)c2ccc(Cl)cc2)c(Cl)cc1NC(=O)c1cc(I)cc(I)c1O (stereo unspecified) [Closantel]	0.00862		
CC[C@H]1CN2CC[C@]3(C(=O)Nc4ccccc43)[C@@H]2C[C@@H]1/C(=C\OC)C(=O)OC [Rhynchophylline]	0.931	inactive: 0.631	1.09
CC(C)[C@]12O[C@H]1[C@@H]1O[C@@]13[C@@]1(C)CCC4=C(COC4=O)[C@@H]1C[C@@H]1O[C@@]13C2=O [Triptonide]	0.0254		
CCC(COC(=O)c1cc(OC)c(OC)c(OC)c1)(c1ccccc1)N(C)C (stereo unspecified) [Trimebutine]	0.464		
CCOC(=O)Nc1ccc(NCc2ccc(F)cc2)cc1N [Retigabine]	1.06	inactive: 0.958	1.38
CN1[C@@H]2CC(O)C[C@H]1[C@@H]1O[C@@H]12 (stereo partly specified) [Scopine]	1.24	inactive: 1.1	1.34
Nc1nc(N)nc(NC2CC2)n1 [Cyromazine]	0.98	inactive: 0.904	1.62
C[C@@H]1O[C@@H](O[C@H]2C[C@@H](O)[C@]3(CO)[C@H]4[C@H](O)C[C@]5(C)[C@@H](C6=CC(=O)OC6)CC[C@]5(O)[C@@H]4CC[C@]3(O)C2)[C@H](O)[C@H](O)[C@H]1O [Ouabain]	0.0879		
